The full ranking holds about 33,000 sequences; the median of “E-score (-0.5 to 0.5)” is about -0.013, and the highest 2% start at about 0.3. The list shows a part of the results.
What follows are sequences tested against T1, Msn1 (UniProt P22148) (assay: PBM E-score (8-mer binding enrichment) (E-score (-0.5 to 0.5)); higher = stronger / more preferred TF binding; most listed sequences are background and not binding sites). Details: protein concentration: 200 nM; construct: GST-full length.
T1 sequence: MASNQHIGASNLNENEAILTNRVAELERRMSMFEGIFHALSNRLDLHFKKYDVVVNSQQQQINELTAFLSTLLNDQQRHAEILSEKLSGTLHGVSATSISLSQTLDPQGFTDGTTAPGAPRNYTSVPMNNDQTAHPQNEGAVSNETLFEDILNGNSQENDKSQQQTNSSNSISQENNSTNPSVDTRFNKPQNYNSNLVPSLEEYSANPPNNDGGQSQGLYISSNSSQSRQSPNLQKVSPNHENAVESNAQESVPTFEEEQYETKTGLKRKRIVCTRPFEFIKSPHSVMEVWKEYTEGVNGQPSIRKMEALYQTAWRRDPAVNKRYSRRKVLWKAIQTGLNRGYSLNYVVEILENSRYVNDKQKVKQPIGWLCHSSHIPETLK
Method in brief: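 Universal all-10-mer Agilent arrays, double-stranded by primer extension on fresh or once-stripped slides, were probed with about 100-200 nM GST-tagged yeast transcription factors made by PURExpress. Fluorescent anti-GST detected bound protein, and masliner normalised the scans. E-scores from the Universal PBM Analysis Suite were given to each ungapped eight-base word pooled with its reverse complement.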
CTCTAAAC was tested, and the “PBM E-score” value was 0.114. With AAGCCTGT the “PBM E-score” value was 0.0168. CGCCGCAC was tested, and the “PBM E-score” value was -0.152. With CGACTGTC the “PBM E-score” value was 0.0367. With CGCAAATC the “PBM E-score” value was -0.0541. For CTGCCACA, the “PBM E-score” value was -0.0324. With AGCACAAG the “PBM E-score” value was -0.218. In the case of CGCGCCCG, the “PBM E-score” value is reported as -0.0907. ACGCTCAA was tested, and the “PBM E-score” value was 0.021. AGATCCGA was tested, and the “PBM E-score” value was 0.214. For CGAGAGCA, the “PBM E-score” value was -0.112. For ATTTCCGC, the “PBM E-score” value was 0.0913. For AACCGGTC, the “PBM E-score” value was 0.0935. For CTTGAAAA, the “PBM E-score” value was 0.117. For AATTTCCC, the “PBM E-score” value was 0.137. AGACCGGA was tested, and the “PBM E-score” value was 0.0121. With ATCCCCTA the “PBM E-score” value was -0.217. GTTACCTA was tested, and the “PBM E-score” value was -0.144. In the case of CAGGCTAA, the “PBM E-score” value is reported as -0.0305. In the case of CGAAAACA, the “PBM E-score” value is reported as 0.068. GATAGCCA was tested, and the “PBM E-score” value was -0.093. In the case of AGGCCCAG, the “PBM E-score” value is reported as -0.213. In the case of CATGCTAC, the “PBM E-score” value is reported as -0.15. In the case of ACCGAGTC, the “PBM E-score” value is reported as -0.162. With ACCGACAG the “PBM E-score” value was -0.0494. In the case of ACTATATA, the “PBM E-score” value is reported as 0.256. In the case of CCCGACCC, the “PBM E-score” value is reported as -0.138. CTGATAAA was tested, and the “PBM E-score” value was 0.242. AGTTGAGA was tested, and the “PBM E-score” value was -0.0677. GCTTGCTA was tested, and the “PBM E-score” value was -0.327. With AAGTTTCA the “PBM E-score” value was 0.0829. CGCACACA was tested, and the “PBM E-score” value was -0.0261. GGCGCCAA was tested, and the “PBM E-score” value was -0.0215. For CGTCAGTC, the “PBM E-score” value was -0.0254. GGCGGCCA was tested, and the “PBM E-score” value was -0.161. With TATACTAA the “PBM E-score” value was 0.0532. For ATTTACGC, the “PBM E-score” value was 0.047. In the case of ATATTCGG, the “PBM E-score” value is reported as 0.11. In the case of ACGTGCCA, the “PBM E-score” value is reported as -0.109. In the case of CCCGCGGG, the “PBM E-score” value is reported as -0.0169. With ATCGTCTG the “PBM E-score” value was -0.0622. GGACCGTA was tested, and the “PBM E-score” value was -0.137. With AACAACGT the “PBM E-score” value was -0.0304. In the case of GCACAGCA, the “PBM E-score” value is reported as 0.12. GCACAGAA was tested, and the “PBM E-score” value was -0.0452. CCGGAGTA was tested, and the “PBM E-score” value was 0.219. In the case of CATACCAA, the “PBM E-score” value is reported as 0.119. CTGCGTTC was tested, and the “PBM E-score” value was -0.0885. With AGACGATC the “PBM E-score” value was -0.266. For ACTGGGAC, the “PBM E-score” value was 0.262. CTTGTTCC was tested, and the “PBM E-score” value was 0.0718. For CATTGTAG, the “PBM E-score” value was -0.125. In the case of ACGACCTC, the “PBM E-score” value is reported as 0.0406. For AGGTATTG, the “PBM E-score” value was 0.121. ATTGTTTA was tested, and the “PBM E-score” value was 0.113. For GAACACTA, the “PBM E-score” value was -0.0576. In the case of ATATACAT, the “PBM E-score” value is reported as 0.174. For CCTCCAGC, the “PBM E-score” value was -0.299. For GAAACTAC, the “PBM E-score” value was 0.0878. AAATTCCT was tested, and the “PBM E-score” value was 0.0228. With CGTGTCAG the “PBM E-score” value was 0.213. For CAGGCTAG, the “PBM E-score” value was -0.24. With ACGCACGA the “PBM E-score” value was 0.149. In the case of ATAGTTCG, the “PBM E-score” value is reported as 0.199. In the case of CTGTGAAA, the “PBM E-score” value is reported as 0.2. For GGACGCAA, the “PBM E-score” value was 0.0782. For ATAGTAAC, the “PBM E-score” value was 0.11. With ATGCGTCC the “PBM E-score” value was 0.113. ACGTTACT was tested, and the “PBM E-score” value was 0.0702. In the case of AACACAAA, the “PBM E-score” value is reported as 0.0581. With TCAAAGCA the “PBM E-score” value was 0.0823. CATTGTCG was tested, and the “PBM E-score” value was 0.21. In the case of ACAGTCAA, the “PBM E-score” value is reported as -0.0879. With GCGAGCTA the “PBM E-score” value was -0.107. AGAGTAAA was tested, and the “PBM E-score” value was -0.0814. CACAGGAG was tested, and the “PBM E-score” value was -0.0449. In the case of CTCGAACC, the “PBM E-score” value is reported as -0.0331. CTGTGTGC was tested, and the “PBM E-score” value was -0.157. With CGCTACGA the “PBM E-score” value was -0.0421. In the case of CGTGCCCC, the “PBM E-score” value is reported as -0.303. TAACAGTA was tested, and the “PBM E-score” value was -0.0091. In the case of TGAGATAA, the “PBM E-score” value is reported as -0.0628. With CGCCAAAA the “PBM E-score” value was 0.00992. In the case of ACTTCGAC, the “PBM E-score” value is reported as 0.0429. With CATGCTGG the “PBM E-score” value was 0.0482. ATCCAAGA was tested, and the “PBM E-score” value was 0.0622. With CTCTGATC the “PBM E-score” value was -0.178. GTGGAATA was tested, and the “PBM E-score” value was -0.0199. ACTCCGCG was tested, and the “PBM E-score” value was -0.0578. For GACGAGCA, the “PBM E-score” value was 0.00803. ACGACAGA was tested, and the “PBM E-score” value was 0.0256. For ATGTTGTG, the “PBM E-score” value was 0.167. For ACCGGCGC, the “PBM E-score” value was 0.00773. With ACCGCCAA the “PBM E-score” value was 0.0577. With AGGAACTG the “PBM E-score” value was -0.0153. For CATTCTTA, the “PBM E-score” value was 0.122. For TCGACCAA, the “PBM E-score” value was -0.118. GTGGCGTA was tested, and the “PBM E-score” value was -0.189. With TATTCCAA the “PBM E-score” value was 0.0327. For CTGTTACC, the “PBM E-score” value was -0.0157. For GCGTAGAC, the “PBM E-score” value was -0.142. ATGTGGAC was tested, and the “PBM E-score” value was 0.276. For CTACTTGA, the “PBM E-score” value was 0.0202. In the case of ATGGACGA, the “PBM E-score” value is reported as 0.273. For GCTCTAGA, the “PBM E-score” value was -0.0989. For CCTTCTTA, the “PBM E-score” value was -0.14. With GGCAGCCA the “PBM E-score” value was -0.0768. CACAACCG was tested, and the “PBM E-score” value was 0.0261. With ATAAGATC the “PBM E-score” value was -0.0136. CAGATCCC was tested, and the “PBM E-score” value was -0.219. AGGACCGG was tested, and the “PBM E-score” value was 0.0657. GGACCGGA was tested, and the “PBM E-score” value was 0.113. In the case of CGTGAAGA, the “PBM E-score” value is reported as 0.00643. For CTGGACGC, the “PBM E-score” value was -0.047. For GAATATCA, the “PBM E-score” value was 0.119. For ACCAAAAC, the “PBM E-score” value was 0.0126. TAACACTA was tested, and the “PBM E-score” value was 0.115. With ACCGGGAG the “PBM E-score” value was -0.249. In the case of ATGTCTCC, the “PBM E-score” value is reported as 0.302. AAAGAATG was tested, and the “PBM E-score” value was 0.252. With AACCTCCT the “PBM E-score” value was -0.239. With GACCTGGA the “PBM E-score” value was -0.0908. AGCCTAAC was tested, and the “PBM E-score” value was -0.198. AGTGGCCC was tested, and the “PBM E-score” value was -0.243. CAATCCGA was tested, and the “PBM E-score” value was 0.102. With GCCCCACC the “PBM E-score” value was -0.249. AGGTCATA was tested, and the “PBM E-score” value was 0.0778. ACATAAAT was tested, and the “PBM E-score” value was 0.307. With CAGTCGAG the “PBM E-score” value was -0.122. With GGACTAAC the “PBM E-score” value was 0.175. With AGCAACAT the “PBM E-score” value was -0.0706. With CCGAGCTC the “PBM E-score” value was 0.111. CCAGTGCA was tested, and the “PBM E-score” value was -0.0783. In the case of CCCCGGGA, the “PBM E-score” value is reported as -0.103. With AGAAGATC the “PBM E-score” value was -0.15. In the case of AAACCACC, the “PBM E-score” value is reported as 0.0789. For CCTGCGGC, the “PBM E-score” value was -0.266. For ACTACCCA, the “PBM E-score” value was 0.0938. For GGCCCAGA, the “PBM E-score” value was -0.257. With AAGCCGAT the “PBM E-score” value was 0.00466. For ATAATCAC, the “PBM E-score” value was 0.11. In the case of TTACAAAA, the “PBM E-score” value is reported as 0.12. In the case of CCTCGTCC, the “PBM E-score” value is reported as -0.0458. In the case of ATATGTTC, the “PBM E-score” value is reported as 0.11. GGTATGAC was tested, and the “PBM E-score” value was 0.0848. In the case of CCTCTGAA, the “PBM E-score” value is reported as -0.13. With CCGTGCTC the “PBM E-score” value was -0.148. With ATTGTGAG the “PBM E-score” value was -0.059. AATAGACG was tested, and the “PBM E-score” value was -0.0584. In the case of CCTCGCAG, the “PBM E-score” value is reported as -0.159. ACGCCAAT was tested, and the “PBM E-score” value was -0.0553. For CATGCGAA, the “PBM E-score” value was -0.0259. In the case of CTGTAAAG, the “PBM E-score” value is reported as 0.0053. CCCTCATC was tested, and the “PBM E-score” value was -0.42. CAGTCCGA was tested, and the “PBM E-score” value was 0.138. For CCTGCCCA, the “PBM E-score” value was -0.222. In the case of CCGTGGAG, the “PBM E-score” value is reported as -0.258. For CAGGCCGG, the “PBM E-score” value was -0.139. In the case of GCCGTACC, the “PBM E-score” value is reported as -0.159. For ACGAAATA, the “PBM E-score” value was 0.0981. In the case of TAGATACA, the “PBM E-score” value is reported as 0.0677. For AAGGCGTC, the “PBM E-score” value was -0.0754. For GTCGAGGA, the “PBM E-score” value was -0.046. ACCATGCC was tested, and the “PBM E-score” value was -0.0435. AACCACAG was tested, and the “PBM E-score” value was -0.106. For CGCCTGTC, the “PBM E-score” value was -0.0636. In the case of CAGTCAGG, the “PBM E-score” value is reported as -0.211. For CAAGAGAG, the “PBM E-score” value was -0.0301. GAAATATA was tested, and the “PBM E-score” value was 0.255. ATCGTCAG was tested, and the “PBM E-score” value was -0.173. In the case of ATCACTGA, the “PBM E-score” value is reported as 0.0304. CTACTGCA was tested, and the “PBM E-score” value was -0.0174.

Reference: the supplement of paper PMC3334620
